Drawing on PubChem BioAssay AID463173 (ICCB-Longwood Screening Facility, Harvard Medical School, 2010), this text covers survival for 92 molecules.

The whole screen tested about 52,000 compounds, of which about 1,700 (3.3%) were called active. No stated cut-off is given here; in the data, active means survival mostly below about 52% (no sharp cut-off); inactive means mostly above about 56%. Some of the results follow.

The test system of the assay is Wild type. Description: growth inhibition of S. aureus wild type versus tarO mutant, primary screen, teichoic acid synthesis inhibitors, RN4220, OD600 (AID 463173). The settings on record: S. aureus RN4220 wild type/DeltatarO growth, OD600, 18 h, stronger effect = lower value, screened at 18.75 µg/mL (by protocol).
Regarding `Cc1cc(C)cc(NC(=O)CSc2nc(-c3ccccc3)c3cc(F)ccc3n2)c1`, the survival is inactive: 86%. To `Cc1ccc2c(c1)-c1ncc(C(=O)c3ccccc3O)cc1CO2` belongs active: -7%; to `CCc1ccc(NC(=O)CC2C(=O)N(c3cccc(OC)c3)C(=O)N2C2CCCC2)cc1` (configuration not stated), inactive: 120%. Turning to `Cc1ccc(C(=O)NC2=NC(c3ccc(C)cc3)CC(=O)N2)cc1` (configuration not stated), the survival was inactive: 129%. In the case of `Cc1cc(C)cc(NC(=O)c2cc(CN3CCCC3)on2)c1`, the survival is inactive: 75%. Take `CCn1c(SCCC#N)nnc1-c1ccncc1`: the survival is inactive: 99%. To `CC(=O)c1ccc(NC(=O)c2cc3sccc3n2Cc2ccc(F)cc2)cc1` belongs inactive: 83%. Turning to `CCCCCOC(=O)CSc1ncnc2sc3c(c12)CCC(C)C3` (configuration not stated), the survival was active: -1%.

As to `Cc1ccccc1S(=O)(=O)Cc1ccc(C(=O)NC2CCC(C)CC2)o1` (configuration not stated), the survival was inactive: 78%. Turning to `CCOc1ccc(NC(=O)Cn2c(=O)n(-c3ccccc3)c(=O)c3ccc(C(=O)NCc4ccc5c(c4)OCO5)cc32)cc1`, the survival was inactive: 119%.

For `COc1ccc(CNC(=O)c2cc3sccc3n2CC(=O)c2ccccc2)cc1`, the survival is inactive: 110%. As for `CCc1nc2cccnc2n1CCNC(=O)NC1CCCCC1`, the survival was inactive: 108%. On to `CCC(C)NC(=O)CSc1nc2cc3c(cc2c(=O)n1CCCCCC(=O)NCc1ccc2c(c1)OCO2)OCO3` (configuration not stated), for which the survival was inactive: 56%. For `Cc1ccc(CNC(=O)C2CCN(S(=O)(=O)c3ccc4[nH]c(=O)ccc4c3)CC2)cc1`, the survival is inactive: 95%.

Turning to `Cc1nc2nc[nH]n2c(=O)c1CCC(=O)Nc1ccc(F)cc1`, the survival was inactive: 91%.

As to `Cc1cc(-c2ccc(C)c(S(=O)(=O)NC3CCCCC3)c2)on1`, the survival was inactive: 68%.

Regarding `CCOc1ccc(-n2ccnc2SCC(=O)Nc2nc3ccc(C)cc3s2)cc1`, the survival was inactive: 80%. Take `O=C(Cn1c(=O)n(Cc2cccs2)c(=O)c2cccnc21)Nc1ccc(F)cc1`: the survival was inactive: 88%. In the case of `COc1cccc2cc(C(=O)Nc3ccc(F)c(F)c3)c(=O)oc12`, the survival is inactive: 88%. Regarding `COc1ccc(-c2ccc(SCC(=O)N3CCC(C)CC3)nn2)cc1`, the survival was inactive: 105%. `CC1(C)C(=O)N(CC(=O)Nc2cccc(F)c2)c2ccc(S(=O)(=O)N3CCCCC3)cc21`: the survival is inactive: 55%. In the case of `Cc1nn(-c2ccccc2)c2c1N(CC(=O)N1CCN(c3ccc(F)cc3)CC1)C(=O)CS2`, the survival is inactive: 68%. For `CCOc1cc(-c2nnc(SCC(=O)NC3CCCC3)nc2-c2ccc(OC)c(OCC)c2)ccc1OC`, the survival is inactive: 66%. Regarding `CCCCCSc1nnc(-c2ccc(Br)cc2)o1`, the survival was active: -1%.

On to `Cc1ccc(Cl)cc1-n1c(=O)c2sc3ccccc3c2n(Cc2ccccc2)c1=O`, for which the survival was inactive: 77%. As for `COc1ccccc1Nc1cccc2nonc12`, the survival was inactive: 116%.

Turning to `CC(=O)Nc1ccc2sc(C)nc2c1`, the survival was inactive: 111%. To `CC(C)CCN1C(=O)c2ccccc2CC1(C)C(=O)NC1CCC(C)CC1` (configuration not stated) belongs inactive: 85%; to `O=C(CSc1nccn1C1CCCC1)Nc1ccc(C(F)(F)F)cc1`, inactive: 70%. To `O=C(Nc1cccc(F)c1)[C@H](CSCc1ccccc1)N1Cc2ccccc2C1=O` belongs inactive: 64%.

In the case of `CCOc1ccc(NC(=O)Cn2cc(S(=O)(=O)NC)c(S(=O)(=O)NC)c2)cc1`, the survival is inactive: 65%. In the case of `COc1ccc(NC(=O)C2CCN(S(=O)(=O)c3ccc4[nH]c5c(c4c3)CCCCC5)CC2)cc1`, the survival is inactive: 126%.

Regarding `CC(C)c1ccc(-c2nc(C(N)=O)c3c(n2)n(-c2ccc4c(c2)OCO4)c(=O)n3C)cc1`, the survival was inactive: 60%. Take `Cc1ccc(NC(=O)C2CCCN(c3ncnc4onc(-c5ccc(F)cc5)c34)C2)c(Cl)c1` (configuration not stated): the survival is inactive: 74%.

On to `CCCCOc1cccc(C(=O)Nc2cccc(-c3nc4ncccc4o3)c2C)c1`, for which the survival is inactive: 72%. Regarding `CCOC(=O)C1=C(C)NC(=O)NC1c1cn(-c2ccccc2)nc1-c1ccc(OCC)cc1` (configuration not stated), the survival is inactive: 66%. `CCC1SC(=S)N(CC(=O)O)C1=O` (configuration not stated): the survival is inactive: 113%.

Take `Cc1cccc(N2CCN(C(=O)CN3C(=O)COc4ccc(S(=O)(=O)N5CCCCCC5)cc43)CC2)c1C`: the survival was inactive: 88%. To `CN(C)C(=O)N(C)C1CCS(=O)(=O)C1` (configuration not stated) belongs inactive: 110%; to `CSc1ncc(C(=O)N2CCN(c3cc(C)ccc3C)CC2)c(C)n1`, inactive: 68%. On to `CCn1c(=N)c(C(=O)NCc2ccccc2)cc2c(=O)n3cc(C)ccc3nc21`, for which the survival is inactive: 74%. `CCCNS(=O)(=O)c1ccc(-n2cnnn2)c(OC)c1`: the survival was inactive: 102%. To `CCCCNC(=O)C(Cc1ccccc1)NS(=O)(=O)c1ccc2c(c1)c(=O)n(C)c(=O)n2C` (configuration not stated) belongs inactive: 90%; to `Cc1oc(-c2ccc(C(=O)NCc3ccc(Cl)cc3)cc2)nc1CS(=O)(=O)c1ccccc1`, inactive: 72%.

For the molecule `CC(C)c1ccc(N2C(=O)CS(=O)(=O)C23C(=O)N(Cc2cccc(F)c2)c2ccccc23)cc1` (configuration not stated), the survival is inactive: 66%. To `CCOc1ccc(-c2ncnn2-c2sc3c(c2C#N)CCCCC3)cc1` belongs active: 3%. For `CCC1CN(C(=O)NCc2ccc(C)cc2)c2ccccc2O1` (configuration not stated), the survival was inactive: 106%. For `CC(C)(C)n1nnnc1C(c1ccc2ncccc2c1)N1CCOCC1` (configuration not stated), the survival was inactive: 110%. Consider `Cc1ccc(C)c(NC(=O)c2cc(S(=O)(=O)N3CCCc4ccccc43)ccc2F)c1`, for which the survival is inactive: 84%. For the molecule `Cc1cc(C)c(OCC(=O)N(Cc2ccco2)Cc2ccco2)c(C)c1`, the survival is inactive: 84%. Take `CCOC(=O)c1ccc(NS(=O)(=O)c2ccc(-c3cc(C)no3)cc2)cc1`: the survival was inactive: 81%. For `Cc1nc2ccc(S(=O)(=O)N3CCCCC3)cc2s1`, the survival was inactive: 113%. Regarding `CSc1ncc(C(=O)Nc2c(C)cccc2C)c(-c2ccccc2)n1`, the survival was inactive: 80%. For `Cc1ccc(S(=O)(=O)C2(C(=O)O)CC2)cc1C`, the survival was inactive: 107%. `Cc1nc2ccccc2c(=O)n1-c1ccc(NC(=O)c2cccc([N+](=O)[O-])c2)cc1`: the survival is inactive: 59%. As for `COc1ccccc1CCNC(=O)c1ccc(-c2nc(CSc3ccc(C)cc3)c(C)o2)cc1`, the survival was inactive: 81%. As for `Oc1ccc2ccccc2c1CN1CCOCC1`, the survival was inactive: 99%. To `COc1ccc(Cn2ccc3nc(C)c(C(=O)Nc4cc(C)cc(C)c4)cc3c2=O)cc1` belongs inactive: 99%; to `CCCC(O)c1nc2ccccc2n1Cc1ccccc1OC` (configuration not stated), inactive: 108%; to `Cc1nc2ccccc2n1C(=O)CCC(=O)O`, inactive: 103%. To `COc1cc(NC(=O)CN2c3ccccc3S(=O)(=O)c3ccccc32)cc(OC)c1` belongs inactive: 73%. For the molecule `CCN(CC)S(=O)(=O)Cc1ccccc1`, the survival is inactive: 103%.

Regarding `C=CCn1cc(F)c(=O)n(CC=C)c1=O`, the survival is inactive: 109%. To `CCC1CN(C(=O)N2CCC(C(=O)NCCc3ccccc3Cl)CC2)c2cc(C)ccc2O1` (configuration not stated) belongs inactive: 94%; to `Cc1ccc(Nc2nnc(-c3ccc(C)c(S(=O)(=O)N4CCN(C)CC4)c3)c3ccccc23)cc1`, inactive: 76%. As to `CCOc1c(C)cc(-c2ncccc2O)cc1C`, the survival was inactive: 121%.

As for `CC1CCN(c2ncccc2C(=O)NC2CCCCC2)CC1`, the survival is inactive: 125%. For `CCOCCCn1c(SCC(=O)OCC)nc2c(sc3ccccc32)c1=O`, the survival is inactive: 136%. As to `COCCNC(=O)CSc1nc(-c2cc(OC)c(OC)c(OC)c2)[nH]c1-c1ccc(Cl)cc1`, the survival is inactive: 88%. To `Cc1ccc(C(=O)CSc2nc(-c3ccccc3)nc3c2CCCC3)c(C)c1` belongs inactive: 58%. For `Cc1ccc(S(=O)(=O)N(CCO)Cc2cc3cc(C)c(C)cc3[nH]c2=O)cc1`, the survival is inactive: 107%. As for `Cc1cccc(C(C)C)c1NC(=O)C1CCCN1S(=O)(=O)c1cccc2nsnc12` (configuration not stated), the survival was inactive: 76%. For `CCc1ccc(C(=O)CC2(O)C(=O)N(C(C)C)c3ccccc32)cc1` (configuration not stated), the survival was inactive: 111%. On to `Cc1oc2c(c1C(=O)NCc1cc(C(=O)O)co1)CCCC2`, for which the survival is inactive: 116%. To `O=S(=O)(CCN1CCOCC1)c1ccc(Oc2ccc(S(=O)(=O)CCN3CCOCC3)cc2)cc1` belongs inactive: 110%; to `CNC(=O)C1CCC(Cn2c(=O)c3sccc3n(CC(=O)Nc3ccc(C)c(C)c3)c2=O)CC1` (configuration not stated), inactive: 82%. `O=C(Cc1ccc(F)cc1)Nc1nncs1`: the survival was inactive: 110%. To `O=S(=O)(c1ccccc1)c1nnn2c1nc(NC1CCCCC1)c1sccc12` belongs inactive: 94%.

Take `CCCCn1cc(S(=O)(=O)c2ccc(OC)cc2)c(=O)c2cc(CC)ccc21`: the survival was inactive: 79%. With `Cc1ccc(Cl)cc1NC(=O)Nc1nnc(N(C)Cc2ccccc2)s1`, the survival is inactive: 93%. To `Cn1c(=O)c2c(SCC(=O)Nc3ccccc3C(F)(F)F)nc(C3CCCC3)nc2n(C)c1=O` belongs inactive: 72%. To `CCc1ccc(NC(=O)CN(c2ccc(C)cc2)S(=O)(=O)c2cccs2)cc1` belongs inactive: 76%; to `COc1ccc(-c2cc(C)no2)cc1S(=O)(=O)N1CCc2ccccc21`, inactive: 76%; to `O=C(O)CCCCn1c(SCC(=O)Nc2ccccc2C(F)(F)F)nc2ccsc2c1=O`, inactive: 73%. Consider `Cc1ccc(CN(C(=O)c2ccccc2)c2ccccn2)o1`, for which the survival is inactive: 104%. To `CC(=O)N1CCc2nc3sc(C(=O)c4ccc(F)cc4)c(N)c3c(C(F)(F)F)c2C1` belongs inactive: 69%. To `Cc1ccc(C(=O)Nc2ccc(S(=O)(=O)N3CCC(c4nc5ccccc5s4)CC3)cc2)cc1` belongs inactive: 93%; to `Cc1ccc(OCC(=O)Nc2nnc(S(=O)(=O)N3c4ccccc4CC3C)s2)cc1` (configuration not stated), inactive: 48%. With `Cc1ccc(NC(=O)c2nc(S(C)(=O)=O)ncc2N(Cc2ccco2)Cc2cccs2)c(C)c1`, the survival is inactive: 77%. With `Cc1ccc(NC(=O)CSc2nc(=O)n(CCN3CCOCC3)c3c2CCC3)c(C)c1`, the survival is inactive: 72%.

Take `CC(=O)c1cccc(NC(=O)c2nc(-c3ccccc3)n(-c3cccc(Cl)c3)n2)c1`: the survival was inactive: 72%. For the molecule `CCc1ccc(NC(=O)C(=O)NCC(c2cccnc2)N2CCN(c3ccc(F)cc3)CC2)cc1` (configuration not stated), the survival was inactive: 103%.
